Data reported in the supplement of paper PMC4604168 (melanoma cell lines).
This is one part of the list. Most values come without repeats; read them as rough.

How the values were obtained:
Test in all cases: cell count relative to DMSO control; melanoma cells; higher = more viable cells
Conditions in all cases: library dose: low library concentration; 72 h
WM115 = test system: WM115
WM1716 = test system: WM1716
WM1745 = test system: WM1745
WM3526 = test system: WM3526
WM3619 = test system: WM3619
WM451Lu = test system: WM451Lu
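Note: cell number obtained by counting DAPI-stained nuclei in high-throughput microscope images with image analysis software, screen run in 1,536-well plates.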

Structure (SMILES) | cell count (WM115) [%] | cell count (WM1716) [%] | cell count (WM1745) [%] | cell count (WM3526) [%] | cell count (WM3619) [%] | cell count (WM451Lu) [%]
Cn1c(Nc2ccc(C(F)(F)F)cc2)nc2cc(Oc3ccnc(-c4ncc(C(F)(F)F)[nH]4)c3)ccc21 + CC1(C)NC(=O)N(c2ccc([N+](=O)[O-])c(C(F)(F)F)c2)C1=O [nilutamide] (first compound 0.08 µM, partner dose 1 µM) | 52.5 | 68.6 | 53.7 | 50.6 | 69.2 | 91.1
Cn1c(Nc2ccc(C(F)(F)F)cc2)nc2cc(Oc3ccnc(-c4ncc(C(F)(F)F)[nH]4)c3)ccc21 + Cc1cc([N+](=O)[O-])ccc1NS(=O)(=O)c1cc(Cl)ccc1Cl [FH535] (first compound 0.08 µM, partner dose 1 µM) | 29 | 74.4 | 77.3 | 42 | 79.1 | 80.4
C#Cc1cccc(Nc2ncnc3cc(OCCOC)c(OCCOC)cc23)c1 [erlotinib] + COC(=O)c1sccc1S(=O)(=O)Nc1ccc(Nc2ccccc2)cc1OC [GSK0660] (first compound 0.8 µM, partner dose 1 µM) | 104 | 110 | 89 | 102 | 116 | 111
Clc1ccc(Nc2nnc(Cc3ccncc3)c3ccccc23)cc1 [vatalanib] + CC(C)(C)c1cnc(CSc2cnc(NC(=O)C3CCNCC3)s2)o1 [SNS-032] (first compound 2 µM, partner dose 0.01 µM) | 90.2 | 76.7 | 81.2 | 91.3 | 77.9 | 99.3
O=C(CCCCCCC(=O)Nc1ccccc1)NO [vorinostat] + CCCCCCCCCCCC1=C(O)C(=O)C=C(O)C1=O [Embelin] (first compound 0.08 µM, partner dose 1.2 µM) | 108 | 103 | 90.4 | 99.4 | 116 | 101
C#Cc1cccc(Nc2ncnc3cc(OCCOC)c(OCCOC)cc23)c1 [erlotinib] + O=c1cc(-c2cccc3c2Sc2ccccc2S3)oc(N2CCOCC2)c1 [KU55933] (first compound 0.8 µM, partner dose 1 µM) | 114 | 97.7 | 81.6 | 76.7 | 115 | 109
Nc1cccc2c1CN(C1CCC(=O)NC1=O)C2=O (configuration not stated) [lenalidomide] + O=C1NC(=O)/C(=C/c2ccc(-c3ccc(F)cc3O)o2)S1 [AS252424] (first compound 1 µM, partner dose 1 µM) | 107 | 100 | 95.5 | 98.2 | 119 | 77.8
Nc1cccc2c1CN(C1CCC(=O)NC1=O)C2=O (configuration not stated) [lenalidomide] + Cn1cncc1[C@@](N)(c1ccc(Cl)cc1)c1ccc2c(c1)c(-c1cccc(Cl)c1)cc(=O)n2C [tipifarnib] (first compound 1 µM, partner dose 0.01 µM) | 85.6 | 78.8 | 83.7 | 76 | 86.6 | 95.9
OCc1c[nH]c2ccccc12 [Indole-3-carbinol] + COc1ccc2c(c1)CCC1C2CCC2(C)C(NCCCCCCN3C(=O)C=CC3=O)CCC12 [U73122] (first compound 0.8 µM, partner dose 0.4 µM) | 100 | 102 | 106 | 101 | 108 | 94.5
OCc1c[nH]c2ccccc12 [Indole-3-carbinol] + COc1ccc(COc2ccc(Cc3cnc(N)nc3N)cc2OC)cc1 [GW2580] (first compound 0.8 µM, partner dose 1 µM) | 102 | 97.4 | 107 | 113 | 107 | 96.3
COCC[n+]1c2c(n(Cc3cnccn3)c1C)C(=O)c1ccccc1C2=O + OCCn1cc(-c2cnc3nnn(Cc4ccc5ncccc5c4)c3n2)cn1 [PF04217903] (first compound 0.0004 µM, partner dose 1 µM) | 107 | 94.4 | 108 | 99.7 | 98.9 | 52.6
C#Cc1cccc(Nc2ncnc3cc(OCCOC)c(OCCOC)cc23)c1 [erlotinib] + C[C@]1(c2nc3c(C(N)=O)cccc3[nH]2)CCCN1 [Veliparib] (first compound 0.8 µM, partner dose 1.4 µM) | 96.6 | 95.4 | 84.4 | 102 | 101 | 89.9
Clc1ccc(Nc2nnc(Cc3ccncc3)c3ccccc23)cc1 [vatalanib] + C[C@]1(c2nc3c(C(N)=O)cccc3[nH]2)CCCN1 [Veliparib] (first compound 2 µM, partner dose 1.4 µM) | 91.9 | 95.9 | 97.4 | 91.2 | 74.9 | 113
Clc1ccc(Nc2nnc(Cc3ccncc3)c3ccccc23)cc1 [vatalanib] + Cc1ccc(NC(=O)c2cccc(N(C)C)c2)cc1NC(=O)c1ccc(O)cc1 [ZM336372] (first compound 2 µM, partner dose 2 µM) | 110 | 113 | 86.1 | 113 | 82.3 | 106
Nc1cccc2c1CN(C1CCC(=O)NC1=O)C2=O (configuration not stated) [lenalidomide] + Cn1cc(/C=C2\C(=O)Nc3cccnc32)c2ccccc21 [GW441756] (first compound 1 µM, partner dose 0.4 µM) | 97.9 | 90.3 | 94.4 | 98.1 | 96.6 | 103
OCc1c[nH]c2ccccc12 [Indole-3-carbinol] + COc1cc(N2CCC(N3CCN(C)CC3)CC2)ccc1Nc1ncc(Cl)c(Nc2ccccc2S(=O)(=O)C(C)C)n1 [NVP-TAE684] (first compound 0.8 µM, partner dose 0.08 µM) | 84.4 | 98.4 | 80.8 | 87.4 | 58.3 | 82.6
Cn1c(Nc2ccc(C(F)(F)F)cc2)nc2cc(Oc3ccnc(-c4ncc(C(F)(F)F)[nH]4)c3)ccc21 + C[C@]1(c2nc3c(C(N)=O)cccc3[nH]2)CCCN1 [Veliparib] (first compound 0.08 µM, partner dose 1.4 µM) | 45.7 | 63.2 | 63.3 | 46.9 | 50.7 | 79.8
C#Cc1cccc(Nc2ncnc3cc(OCCOC)c(OCCOC)cc23)c1 [erlotinib] + COc1ccc(Cl)c(Nc2nc3ccccc3nc2NS(=O)(=O)c2cccc(NC(=O)C(C)(C)N)c2)c1 [XL147] (first compound 0.8 µM, partner dose 0.8 µM) | 89.2 | 88.6 | 85.5 | 102 | 94.5 | 82
Cn1c(Nc2ccc(C(F)(F)F)cc2)nc2cc(Oc3ccnc(-c4ncc(C(F)(F)F)[nH]4)c3)ccc21 + COc1ccc2c(c1)CCC1C2CCC2(C)C(NCCCCCCN3C(=O)C=CC3=O)CCC12 [U73122] (first compound 0.08 µM, partner dose 0.4 µM) | 53.1 | 50.7 | 58.5 | 44.5 | 75.3 | 110
Clc1ccc(Nc2nnc(Cc3ccncc3)c3ccccc23)cc1 [vatalanib] + O=S(=O)(c1ccccc1)N(CC(F)(F)F)c1ccc(C(O)(C(F)(F)F)C(F)(F)F)cc1 [T0901317] (first compound 2 µM, partner dose 1.4 µM) | 88.6 | 90.7 | 74.7 | 109 | 104 | 104
OCc1c[nH]c2ccccc12 [Indole-3-carbinol] + O=c1cc(-c2cccc3c2Sc2ccccc2S3)oc(N2CCOCC2)c1 [KU55933] (first compound 0.8 µM, partner dose 1 µM) | 120 | 96.3 | 92.6 | 109 | 82.9 | 146
COCC[n+]1c2c(n(Cc3cnccn3)c1C)C(=O)c1ccccc1C2=O + CCCCCCCCCCCC1=C(O)C(=O)C=C(O)C1=O [Embelin] (first compound 0.0004 µM, partner dose 1.2 µM) | 96.8 | 97.5 | 93.9 | 91.7 | 120 | 95.6
Nc1cccc2c1CN(C1CCC(=O)NC1=O)C2=O (configuration not stated) [lenalidomide] + Oc1nc(-c2ccc(C(F)(F)F)cc2)nc2c1CSCC2 [XAV939] (first compound 1 µM, partner dose 2 µM) | 101 | 67.7 | 86 | 107 | 68 | 88.5
COCC[n+]1c2c(n(Cc3cnccn3)c1C)C(=O)c1ccccc1C2=O + Cn1cncc1[C@@](N)(c1ccc(Cl)cc1)c1ccc2c(c1)c(-c1cccc(Cl)c1)cc(=O)n2C [tipifarnib] (first compound 0.0004 µM, partner dose 0.01 µM) | 84.2 | 90.1 | 102 | 72.8 | 97.3 | 70.7
C#Cc1cccc(Nc2ncnc3cc(OCCOC)c(OCCOC)cc23)c1 [erlotinib] + COc1ccc(-c2ccc3c(N4CCOCC4)nc(N4C[C@@H](C)O[C@@H](C)C4)nc3n2)cc1CO [KU0063794] (first compound 0.8 µM, partner dose 0.02 µM) | 77.2 | 78.6 | 70.8 | 83.9 | 79.7 | 121
C#Cc1cccc(Nc2ncnc3cc(OCCOC)c(OCCOC)cc23)c1 [erlotinib] + NC(=O)Nc1cc(-c2cccc(F)c2)sc1C(=O)N[C@H]1CCCNC1 [AZD7762] (first compound 0.8 µM, partner dose 0.02 µM) | 76.6 | 88.4 | 81.1 | 70.8 | 44.2 | 87
C#Cc1cccc(Nc2ncnc3cc(OCCOC)c(OCCOC)cc23)c1 [erlotinib] + CN(C)S(=O)(=O)c1ccc2c(c1)/C(=C/c1cc3c([nH]1)CCCC3)C(=O)N2 [SU6656] (first compound 0.8 µM, partner dose 0.4 µM) | 85 | 83.1 | 91.2 | 69 | 86.6 | 53.9
